# Assay results: the supplement of paper PMC12297408
# Structures can show the parent of a compound that is named as a salt. Out of some 1,300 compounds screened, about 40 (3%) showed activity. Some of the results follow.
# System: Plasmodium falciparum NF54/iGP1_RE9H ulg8 stage V gametocytes
# Assay: gametocyte viability (luciferase signal relative to DMSO control) (% of DMSO control); higher = less gametocytocidal activity, active = 50 or less
# Details: exposure time: 72 h
# Summary of the method: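 In 96-well plates holding nanolitre spots of compound (10 mM DMSO stocks), NF54/iGP1_RE9Hulg8 stage V gametocytes from day 12 were added at ~2.5% gametocytemia and 3% hematocrit in medium with 0.5% Albumax II, giving single wells at 10 µM or 1 µM. Incubation lasted 72 h at 37 °C. Each 90 µl sample then received 10 µl D-luciferin (30 mg/ml) before luminescence reading on an IVIS Lumina II, and viability was normalized to the mean of DMSO vehicle wells on the same plate.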
Structure (SMILES),gametocyte viability (concentration: 1 µM),gametocyte viability (concentration: 10 µM)
"CC[C@@]1(O)C(=O)OCc2c1cc1n(c2=O)Cc2cc3ccccc3nc2-1 [Camptothecine (S,+)]",inactive: 94.8,inactive: 97.4
CCC(=O)O[C@@](Cc1ccccc1)(c1ccccc1)[C@@H](C)CN(C)C [Levopropoxyphene napsylate],inactive: 89.4,inactive: 85
CC(C)(C)NCC(O)c1cc(Cl)c(N)c(Cl)c1 (centres undefined) [Clenbuterol hydrochloride],inactive: 85.7,inactive: 83.7
Fc1ccc(C(OCCN2CCN(CCCc3ccccc3)CC2)c2ccc(F)cc2)cc1,inactive: 81.5,inactive: 86
COc1ccc(Cc2nccc3cc(OC)c(OC)cc23)cc1OC [Papaverine hydrochloride],inactive: 95,inactive: 84.7
CCC1(CC)C(=O)C=CNC1=O [Pyrithyldione],inactive: 84.1,inactive: 80.1
Oc1cc(Cl)ccc1Oc1ccc(Cl)cc1Cl [Triclosan],inactive: 83,inactive: 84
C[N+]1([O-])[C@@H]2C[C@@H](OC(=O)[C@H](CO)c3ccccc3)C[C@H]1[C@@H]1O[C@@H]12 (some centres undefined) [Scopolamin-N-oxide hydrobromide],inactive: 91.5,inactive: 94.5
C[C@]12N[C@H](Cc3ccccc31)c1ccccc12 [Dizocilpine maleate],inactive: 82.2,inactive: 83.7
CCN(CC)C(C)C(=O)c1ccccc1 (centres undefined) [Amfepramone hydrochloride],inactive: 83.8,inactive: 83.4
O[C@@H]1CCCC[C@H]1N1CCC(c2ccccc2)CC1 [L(-)-vesamicol hydrochloride],inactive: 91.8,inactive: 84.9
COc1ccc(CCN2CCC(Nc3nc4ccccc4n3Cc3ccc(F)cc3)CC2)cc1 [Astemizole],inactive: 92.7,active: 36.4
CC(=O)O[C@H]1C[C@H](O[C@H]2[C@@H](O)C[C@H](O[C@H]3[C@@H](O)C[C@H](O[C@H]4CC[C@@]5(C)[C@H](CC[C@@H]6[C@@H]5C[C@@H](O)[C@]5(C)[C@@H](C7=CC(=O)OC7)CC[C@]65O)C4)O[C@@H]3C)O[C@@H]2C)O[C@H](C)[C@H]1O[C@@H]1O[C@H](CO)[C@@H](O)[C@H](O)[C@H]1O [Lanatoside C],inactive: 72.8,inactive: 76.2
C[C@]12CC[C@@H]3c4ccc(OC(=O)N(CCCl)CCCl)cc4CC[C@H]3[C@@H]1CC[C@@H]2O [Estramustine],inactive: 79.7,inactive: 68.6
"NCC(O)c1ccc(O)cc1 (racemic) [(+,-)-Octopamine hydrochloride]",inactive: 91.4,inactive: 86.2
CN1[C@@H]2CC[C@H]1C[C@@H](OC1c3ccccc3CCc3ccccc31)C2 [Deptropine citrate],inactive: 99.2,inactive: 86.5
"CCC1(c2ccc(N)cc2)CCC(=O)NC1=O (centres undefined) [Glutethimide, para-amino]",inactive: 90,inactive: 95.8
CC[C@@]1([C@@H]2O[C@@H]([C@H]3O[C@@](O)(CO)[C@H](C)C[C@@H]3C)C[C@@H]2C)CC[C@H]([C@]2(C)CC[C@]3(C[C@H](O)[C@@H](C)[C@@H]([C@@H](C)[C@@H](OC)[C@H](C)C(=O)O)O3)O2)O1 [Monensin sodium salt],active: 28.8,active: 0.676
CCN(C)C(=O)Oc1cccc([C@H](C)N(C)C)c1 [Rivastigmine],inactive: 88.1,inactive: 88.8
CN(C)C(=O)Oc1cc(OC(=O)N(C)C)cc(C(O)CNC(C)(C)C)c1 (centres undefined) [Bambuterol hydrochloride],inactive: 91,inactive: 94.7
C[C@]12CC[C@H](O)C[C@@H]1CC[C@@H]1[C@@H]2CC[C@]2(C)C(=O)CC[C@@H]12 [Epiandrosterone],inactive: 79.5,inactive: 84.6
CCn1cc(C(=O)O)c(=O)c2cc3c(cc21)OCO3 [Oxolinic acid],inactive: 85.4,inactive: 85.8
Cc1cccc(C)c1NC1=NCCCS1 [Xylazine],inactive: 88.8,inactive: 90.9
CN1CCN(C(=O)OC2c3nccnc3C(=O)N2c2ccc(Cl)cn2)CC1 (centres undefined) [Zopiclone],inactive: 92.4,inactive: 87.7

Structure (SMILES),gametocyte viability (concentration: 1 µM),gametocyte viability (concentration: 10 µM)
Clc1ccc(C(OCCN2CCCCC2)c2ccccc2)cc1 (centres undefined) [Cloperastine hydrochloride],inactive: 88,inactive: 84.4
CC(Cc1ccccc1)NCCC(c1ccccc1)c1ccccc1 (centres undefined) [Prenylamine lactate],inactive: 87.4,inactive: 87.5
CC(=O)NC1CCSC1=O (racemic) [N-Acetyl-DL-homocysteine Thiolactone],inactive: 90,inactive: 94
C[C@]12CC[C@H](O)C[C@H]1CC[C@@H]1[C@@H]2C[C@@H](O)[C@]2(C)[C@@H](C3=CC(=O)OC3)CC[C@]12O [Digoxigenin],inactive: 74.9,inactive: 72.3
NC(=O)C[S+]([O-])C(c1ccccc1)c1ccccc1 (centres undefined) [Modafinil],inactive: 82.7,inactive: 82.6
CC(=O)OCC(=O)[C@H]1CC[C@H]2[C@@H]3CC[C@H]4C[C@H](O)CC[C@]4(C)[C@H]3C(=O)C[C@]12C [Alfadolone acetate],inactive: 87.8,inactive: 85.2
O=P1(NCCCl)OCCCN1CCCl (centres undefined) [Ifosfamide],inactive: 78.9,inactive: 84.9
CC(C)c1c(CN(C)C(C)Cc2ccccc2)n(C)n(-c2ccccc2)c1=O (centres undefined) [Famprofazone],inactive: 89.8,inactive: 96.1
C=C(C)[C@@H]1[C@H]2OC(=O)[C@@H]1[C@]1(O)C[C@H]3O[C@]34C(=O)O[C@H]2[C@]14C [Picrotoxinin],inactive: 103,inactive: 99.2
NC(=O)CN1CCCC1=O [Piracetam],inactive: 94.3,inactive: 100
C[C@]12Cc3c[nH]nc3C[C@@H]1CC[C@@H]1[C@@H]2CC[C@@]2(C)[C@H]1CC[C@]2(C)O [Stanozolol],inactive: 95.3,inactive: 98.2
CC(C)C[C@H](CN)CC(=O)O [Pregabalin],inactive: 85.8,inactive: 85.4
CC(C)(C)NCC(O)c1ccccc1Cl (centres undefined) [Tulobuterol],inactive: 86.2,inactive: 89.9
"CC(=O)OCC1=C(C(=O)O)N2C(=O)[C@@H](N)[C@H]2SC1 [Cephalosporanic acid, 7-amino]",inactive: 82.3,inactive: 81.3
CO[C@]12C[C@@H](COC(=O)c3cncc(Br)c3)CN(C)[C@@H]1Cc1cn(C)c3cccc2c13 [Nicergoline],inactive: 81.4,inactive: 86.8
C[N+]12CCC(CC1)C(OC(=O)C(O)(c1ccccc1)c1ccccc1)C2 (centres undefined) [Clidinium bromide],inactive: 88.1,inactive: 83
C[C@@]12N[C@@H](Cc3ccccc31)c1ccccc12 [(-)-MK 801 hydrogen maleate],inactive: 89.9,inactive: 90.4
NCCc1c[nH]c2ccc(O)cc12 [Serotonin hydrochloride],inactive: 81.4,inactive: 86
CCN(C(C)=O)c1cccc(-c2ccnc3c(C#N)cnn23)c1 [Zaleplon],inactive: 89.6,inactive: 83.7
CCC(COC(=O)c1cc(OC)c(OC)c(OC)c1)(c1ccccc1)N(C)C (centres undefined) [Trimebutine],inactive: 83.4,inactive: 79.5
COc1cc([C@@H]2c3cc4c(cc3[C@H](O)[C@H]3COC(=O)[C@H]23)OCO4)cc(OC)c1OC [Podophyllotoxin],inactive: 97.6,inactive: 88.6
C[C@@H]1CC[C@H]2[C@@H](C)C(=O)O[C@@H]3O[C@@]4(C)CC[C@@H]1[C@]32OO4 [Artemisinin],inactive: 70.1,inactive: 63.8
CCC1(c2cccc(O)c2)CCCCN(C)C1 (centres undefined) [Meptazinol hydrochloride],inactive: 83,inactive: 81.4
